The other results are listed elsewhere or left out. At the low end of the ranking, values are background and their order means little.

This assay addresses T1, GST-Rok (full length) (UniProt O34857).
T1 sequence: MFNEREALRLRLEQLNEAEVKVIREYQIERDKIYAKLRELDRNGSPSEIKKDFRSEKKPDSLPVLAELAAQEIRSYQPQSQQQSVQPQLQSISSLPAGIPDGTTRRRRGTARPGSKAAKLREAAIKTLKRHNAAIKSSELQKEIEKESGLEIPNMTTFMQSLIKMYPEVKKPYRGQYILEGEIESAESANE
The experiment in a line: protein binding microarray.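 Further: rank score from −0.5 (least bound) to 0.5 (best bound).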 Conditions: Rok is a gene silencer of Bacillus subtilis; high values mean tight binding; most listed sequences are background and not binding sites; double strand, one strand shown.
CAGACGCA gave a binding signal of -0.0371 E-score.
Regarding GGGTAAAA, the binding signal was found to be 0.184 E-score.
AGGTAGCC yielded a binding signal of -0.0813 E-score.
Sequence AATCAAGC displayed a binding signal of 0.0332 E-score.
CCTTGTCG: the binding signal is -0.161 E-score.
Turning to GTCGGTAA, the binding signal stood at 0.141 E-score.
CCGCTTTA registered a binding signal of -0.0867 E-score.
TGTTGGAA returned a binding signal of -0.0347 E-score.
AAGGCCAG had a binding signal of -0.199 E-score.
The same measure for CCGAACAG: -0.0433 E-score.
ATGGTCTC registered a binding signal of -0.103 E-score.
Take CGCCGCAC: the binding signal was -0.229 E-score.
As to ACCACGGT, the binding signal was found to be 0.114 E-score.
In turn, CCCTGGAG displayed a binding signal of -0.208 E-score.
For GAGTCAGC, the binding signal was found to be 0.055 E-score.
In the case of ACTTATCC, the binding signal is -0.0862 E-score.
The sequence AGTAAGAC yielded a binding signal of 0.078 E-score.
TTGCGCAA gave a binding signal of -0.0529 E-score.
ACTGCTGC yielded a binding signal of -0.00253 E-score.
On to CATGGTTA, for which the binding signal was determined as 0.126 E-score.
Under TCATACGA stands -0.0601 E-score; under ACGTAGCA, 0.0492 E-score.
With AGTTAGCC, the binding signal came to 0.186 E-score.
In turn, ATGCTCGC registered a binding signal of -0.171 E-score.
The sequence GATCGTCA had a binding signal of -0.0172 E-score.
Sequence AGGCTATA came in with a binding signal of -0.0265 E-score.
GCCGAATA registered a binding signal of -0.0225 E-score.
Consider TGGTCGAA, for which the binding signal is -0.11 E-score.
The same measure for GATTATCC: -0.0122 E-score; for GCGGGTTA: -0.053 E-score.
In turn, AAGCCCAG yielded a binding signal of -0.197 E-score.
CAAAGGTA gave a binding signal of 0.077 E-score.
Sequence AAATTTGG showed a binding signal of 0.035 E-score.
Consider AAACAAAT, for which the binding signal was -0.0568 E-score.
Sequence ACAGGACA had a binding signal of -0.0266 E-score.
Consider CGTGTAGA, for which the binding signal amounted to 0.127 E-score.
The same measure for AATGACGC: -0.12 E-score; for ACAGGGCA: -0.257 E-score.
The same measure for GATGACTA: 0.076 E-score; for AATAGCGG: 0.114 E-score; for CTGTTACA: 0.103 E-score.
Take AAGGGCCT: the binding signal was -0.381 E-score.
As to CCAGTCAC, the binding signal was -0.133 E-score.
Under ACTAACCC stands -0.0267 E-score; under ACTGTCTG, -0.0539 E-score; under CCAGGCGG, -0.412 E-score.
As for AAATGTGC, the binding signal came out at 0.146 E-score.
Consider AAGCGAGA, for which the binding signal is -0.309 E-score.
Sequence ATGTTTAG yielded a binding signal of 0.0567 E-score.
TAGTTATA returned a binding signal of 0.382 E-score.
Under ATCGCTAA stands 0.148 E-score; under ACCGTACT, 0.0822 E-score; under TCCCCTCA, -0.389 E-score.
ATCTACTA returned a binding signal of 0.446 E-score.
Sequence ATGATCAA displayed a binding signal of 0.12 E-score.
The same measure for AGTCCAGG: -0.14 E-score; for ACTCACCT: -0.0165 E-score; for TAGTCCCA: 0.0415 E-score.
Take CTCGGATC: the binding signal was found to be 0.0657 E-score.
For the sequence AACTGGCG, the binding signal is -0.0525 E-score.
For ATTCGCAA, the binding signal was determined as 0.0676 E-score.
AGGCTCCG: the binding signal was -0.313 E-score.
In the case of CCAGGATC, the binding signal was found to be 0.0249 E-score.
With AGGTGGCC, the binding signal was -0.339 E-score.
Sequence AGATTACT returned a binding signal of 0.248 E-score.
ACACATTG returned a binding signal of 0.0472 E-score.
For the sequence GATCGCCA, the binding signal turned out to be 0.0261 E-score.
In turn, ACCTGCCT registered a binding signal of -0.214 E-score.
The sequence AAAGTAGG showed a binding signal of 0.196 E-score.
As to CATACCAC, the binding signal stood at 0.302 E-score.
GCCAATCA had a binding signal of -0.146 E-score.
AAAGGGAC yielded a binding signal of -0.219 E-score.
As to AATGGAAA, the binding signal worked out at 0.14 E-score.
The sequence ACGTACGC came in with a binding signal of 0.0808 E-score.
The same measure for CATGCGCG: -0.197 E-score.
Sequence AAGGGTGG registered a binding signal of -0.184 E-score.
Regarding CATTCGCG, the binding signal was -0.009 E-score.
For CTCTAAGC, the binding signal is -0.239 E-score.
The sequence GATAACGC showed a binding signal of 0.0798 E-score.
Under ACTCCGTC stands -0.105 E-score.
CTAATTAA had a binding signal of 0.233 E-score.
ACTCTTCT registered a binding signal of -0.0347 E-score.
Under ATACGCAC stands 0.23 E-score.
In turn, GACTAAAA displayed a binding signal of 0.123 E-score.
As to ATGGGCGG, the binding signal was -0.362 E-score.
In the case of GACGCCTA, the binding signal was -0.241 E-score.
The sequence CATGTGGG showed a binding signal of -0.139 E-score.
GACTATAC displayed a binding signal of 0.165 E-score.
In turn, CCCATGGC returned a binding signal of -0.375 E-score.
On to CAATCCAA, for which the binding signal is -0.0175 E-score.
GAGCTAGA had a binding signal of 0.0438 E-score.
ACACAACG yielded a binding signal of 0.0586 E-score.
In turn, CTTAGGGA came in with a binding signal of -0.0723 E-score.
As for AAGTCACT, the binding signal is -0.0315 E-score.
CCGTACAA yielded a binding signal of 0.188 E-score.
For the sequence CCGTCTAG, the binding signal was -0.225 E-score.
Sequence CACTCCAC displayed a binding signal of -0.158 E-score.
With CGTCATAA, the binding signal was found to be 0.104 E-score.
Turning to GACACCCA, the binding signal was -0.218 E-score.
Under CTGCGTAC stands -0.0064 E-score; under CGGCGTCA, -0.14 E-score; under ATAAGTGC, 0.218 E-score.
CTGCCTGC came in with a binding signal of -0.376 E-score.
Regarding CTGGATGA, the binding signal was -0.0571 E-score.
AGGGCTTC showed a binding signal of -0.393 E-score.
ACAATCCG returned a binding signal of -0.0704 E-score.
The same measure for TCCTAGGA: 0.00233 E-score.
For the sequence AGCAGAAT, the binding signal turned out to be 0.0225 E-score.
Take ACGTCTGA: the binding signal was -0.13 E-score.
In turn, ATGATGGA registered a binding signal of -0.0583 E-score.
Regarding TCTATGCA, the binding signal was 0.183 E-score.
GAGGGCGA had a binding signal of -0.309 E-score.
The same measure for GAGGGTGA: -0.104 E-score.
In turn, AGAAATAC showed a binding signal of 0.306 E-score.
With AGAATGAA, the binding signal was 0.111 E-score.
Under GCTCGTAA stands 0.0131 E-score; under TCATGTAA, 0.125 E-score.
As for CTAAAAAG, the binding signal is -0.0698 E-score.
AAACTGGA yielded a binding signal of 0.103 E-score.
Under AAGCGCAC stands -0.267 E-score.
AAAAAGCA showed a binding signal of -0.0681 E-score.
Sequence GATGGCCC showed a binding signal of -0.261 E-score.
Turning to ATCAATTC, the binding signal was found to be 0.2 E-score.
As for AGAGAGCA, the binding signal is -0.184 E-score.
ATAGCTCG registered a binding signal of 0.119 E-score.
Sequence ACTGTCAA came in with a binding signal of 0.215 E-score.
As for CAATAGCG, the binding signal amounted to 0.0208 E-score.
ACGGGTTC showed a binding signal of -0.114 E-score.
The sequence AGCAGGAA registered a binding signal of -0.0945 E-score.
Sequence AAAGATTT registered a binding signal of 0.0714 E-score.
Regarding CACGCCAA, the binding signal was 0.0393 E-score.
With GCCCTTCC, the binding signal is -0.339 E-score.
AAGAAGCT displayed a binding signal of -0.0218 E-score.
The same measure for AGAGTGGC: -0.135 E-score; for CCTTCAGC: -0.119 E-score; for AGGGCTCA: -0.296 E-score.
GGGGTTTA registered a binding signal of -0.386 E-score.
Turning to TGATCGAA, the binding signal stood at 0.0419 E-score.
TACAACAA: the binding signal is 0.235 E-score.
The sequence AACTTGCG displayed a binding signal of 0.0526 E-score.
Under TAATAGGA stands 0.202 E-score; under AAGCTATA, 0.231 E-score.
As for GCACGAGC, the binding signal is -0.213 E-score.
Take GCTACGAA: the binding signal turned out to be 0.0976 E-score.
The same measure for ATTCAACG: 0.0169 E-score; for GAAGGGCA: -0.15 E-score; for AGATCGAC: 0.0979 E-score.
For GGGTTTCA, the binding signal was -0.306 E-score.
On to CACGAATG, for which the binding signal was found to be 0.0132 E-score.
In the case of AGAAAACT, the binding signal is 0.134 E-score.
In the case of GCCCAGGC, the binding signal was -0.236 E-score.
The same measure for CGGGCCCG: -0.36 E-score; for CGATAAGC: 0.0195 E-score; for TGATCTAA: 0.0276 E-score.
For the sequence CTTCCAGA, the binding signal was -0.106 E-score.
Under CTGAGGAC stands -0.157 E-score.
Take GAAGAGGC: the binding signal is -0.313 E-score.
Under AAATTGCT stands 0.287 E-score.
The sequence ATACTAAC had a binding signal of 0.199 E-score.
Consider AAACACGT, for which the binding signal turned out to be 0.0783 E-score.
Regarding GCATCAAA, the binding signal is 0.115 E-score.
The sequence AGACGGTA returned a binding signal of 0.2 E-score.
GCCAGACC had a binding signal of -0.234 E-score.
For the sequence AGGAGTCC, the binding signal was -0.0508 E-score.
TGAACACA yielded a binding signal of -0.0647 E-score.
AACCCACG gave a binding signal of -0.24 E-score.
On to AACGAGAA, for which the binding signal is -0.0529 E-score.
Sequence CCACGCGC returned a binding signal of -0.086 E-score.
ATAAGAGC showed a binding signal of 0.12 E-score.
In turn, AACCTACA showed a binding signal of 0.257 E-score.
As to ACAAGCGG, the binding signal is -0.0896 E-score.
Under CAAAAAAA stands 0.0976 E-score.
